Source: the supplement of paper PMC8728848
The other results are listed elsewhere or left out.

Assays:
Assay in all cases: glycan array binding signal (z-score within array); higher = stronger binding
Details in all cases: glycan notation: IUPAC condensed, linker removed
[1] = biological target: Gal(b1-3)[Fuc(a1-4)]GlcNAc
Summary of the method: (§1)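 The binding signal is a Z-score computed within each array. Data were drawn from 3228 arrays in the Consortium for Functional Glycomics database, restricted to those with a known protein sequence. Scores were averaged over arrays of the same protein sequence at different concentrations or buffers, and over linkers, and negative values can be taken as non-binding.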

[2] = biological target: Gal(b1-3)[Fuc(a1-4)]GlcNAc(b1-2)Man(a1-3)[Gal(b1-3)[Fuc(a1-4)]GlcNAc(b1-2)Man(a1-6)]Man(b1-4)GlcNAc(b1-4)GlcNAc
Summary of the method: as §1

[3] = biological target: Gal(b1-3)[Fuc(a1-4)]GlcNAc(b1-2)Man(a1-3)[Gal(b1-3)[Fuc(a1-4)]GlcNAc(b1-2)Man(a1-6)]Man(b1-4)GlcNAc(b1-4)[Fuc(a1-6)]GlcNAc
Summary of the method: as §1

[4] = biological target: Gal(b1-3)[Fuc(a1-4)]GlcNAc(b1-3)Gal(b1-3)[Fuc(a1-4)]GlcNAc
Summary of the method: as §1

[5] = biological target: Gal(b1-3)[Fuc(a1-4)]GlcNAc(b1-3)Gal(b1-4)GlcNAc
Summary of the method: as §1

[6] = biological target: Gal(b1-3)[Fuc(a1-4)]GlcNAc(b1-3)Gal(b1-4)[Fuc(a1-3)]GlcNAc
Summary of the method: as §1

[7] = biological target: Gal(b1-3)[GlcNAc(b1-6)]GalNAc
Summary of the method: as §1

[8] = biological target: Gal(b1-3)[Neu5Ac(a2-6)]GalNAc
Summary of the method: as §1

[9] = biological target: Gal(b1-3)[Neu5Ac(a2-6)]GlcNAc(b1-6)Gal(b1-4)Glc
Summary of the method: as §1

[10] = biological target: Gal(b1-3)[Neu5Ac(b2-6)]GalNAc
Summary of the method: as §1

[11] = biological target: Gal(b1-4)GalNAc(a1-3)[Fuc(a1-2)]Gal(b1-4)GlcNAc
Summary of the method: as §1

[12] = biological target: Gal(b1-4)GalNAc(b1-3)[Fuc(a1-2)]Gal(b1-4)GlcNAc
Summary of the method: as §1

Gal(b1-4)Glc = biological target: Gal(b1-4)Glc
Summary of the method: as §1

Gal(b1-4)Glc6S = biological target: Gal(b1-4)Glc6S
Summary of the method: as §1

Gal(b1-4)GlcNAc = biological target: Gal(b1-4)GlcNAc
Summary of the method: as §1

[13] = biological target: Gal(b1-4)GlcNAc(a1-6)Gal(b1-4)GlcNAc
Summary of the method: as §1

[14] = biological target: Gal(b1-4)GlcNAc(b1-2)Man(a1-3)Man(b1-4)GlcNAc(b1-4)GlcNAc
Summary of the method: as §1

[15] = biological target: Gal(b1-4)GlcNAc(b1-2)Man(a1-3)[Gal(b1-4)GlcNAc(b1-2)Man(a1-6)]Man(b1-4)GlcNAc(b1-4)GlcNAc
Summary of the method: as §1

[16] = biological target: Gal(b1-4)GlcNAc(b1-2)Man(a1-3)[Gal(b1-4)GlcNAc(b1-2)Man(a1-6)]Man(b1-4)GlcNAc(b1-4)[Fuc(a1-6)]GlcNAc
Summary of the method: as §1

[17] = biological target: Gal(b1-4)GlcNAc(b1-2)Man(a1-3)[Man(a1-6)]Man(b1-4)GlcNAc(b1-4)GlcNAc
Summary of the method: as §1

[18] = biological target: Gal(b1-4)GlcNAc(b1-2)Man(a1-6)Man(b1-4)GlcNAc(b1-4)GlcNAc
Summary of the method: as §1

[19] = biological target: Gal(b1-4)GlcNAc(b1-2)Man(a1-6)[Man(a1-3)]Man(b1-4)GlcNAc(b1-4)GlcNAc
Summary of the method: as §1

[20] = biological target: Gal(b1-4)GlcNAc(b1-2)[Gal(b1-4)GlcNAc(b1-4)]Man(a1-3)[Gal(b1-4)GlcNAc(b1-2)Man(a1-6)]Man(b1-4)GlcNAc(b1-4)GlcNAc
Summary of the method: as §1

[21] = biological target: Gal(b1-4)GlcNAc(b1-3)Gal(b1-3)GlcNAc
Summary of the method: as §1

[22] = biological target: Gal(b1-4)GlcNAc(b1-3)Gal(b1-4)Glc
Summary of the method: as §1

[23] = biological target: Gal(b1-4)GlcNAc(b1-3)Gal(b1-4)GlcNAc
Summary of the method: as §1

[24] = biological target: Gal(b1-4)GlcNAc(b1-3)Gal(b1-4)GlcNAc(b1-3)Gal(b1-4)GlcNAc
Summary of the method: as §1

[25] = biological target: Gal(b1-4)GlcNAc(b1-3)Gal(b1-4)[Fuc(a1-3)]GlcNAc(b1-3)Gal(b1-4)[Fuc(a1-3)]GlcNAc
Summary of the method: as §1

[26] = biological target: Gal(b1-4)GlcNAc(b1-3)GalNAc
Summary of the method: as §1

[27] = biological target: Gal(b1-4)GlcNAc(b1-3)[Gal(b1-4)GlcNAc(b1-6)]Gal(b1-4)GlcNAc
Summary of the method: as §1

[28] = biological target: Gal(b1-4)GlcNAc(b1-3)[GlcNAc(b1-6)]Gal(b1-4)GlcNAc
Summary of the method: as §1

[29] = biological target: Gal(b1-4)GlcNAc(b1-6)Gal(b1-4)GlcNAc
Summary of the method: as §1

[30] = biological target: Gal(b1-4)GlcNAc(b1-6)Gal(b1-4)GlcNAc(b1-6)GalNAc
Summary of the method: as §1

[31] = biological target: Gal(b1-4)GlcNAc(b1-6)GalNAc
Summary of the method: as §1

[32] = biological target: Gal(b1-4)GlcNAc(b1-6)[Gal(b1-3)]GalNAc
Summary of the method: as §1

Gal3S(b1-3)GalNAc = biological target: Gal3S(b1-3)GalNAc
Summary of the method: as §1

Gal3S(b1-3)GlcNAc = biological target: Gal3S(b1-3)GlcNAc
Summary of the method: as §1

B1: Flo5 (Saccharomyces cerevisiae), P38894 (protein)
chain: MGSSHHHHHHSSGLVPRGSHMSGATEACLPAGQRKSGMNINFYQYSLKDSSTYSNAAYMAYGYASKTKLGSVGGQTDISIDYNIPCVSSSGTFPCPQEDSYGNWGCKGMGACSNSQGIAYWSTDLFGFYTTPTNVTLEMTGYFLPPQTGSYTFSFATVDDSAILSVGGSIAFECCAQEQPPITSTNFTINGIKPWDGSLPDNITGTVYMYAGYYYPLKVVYSNAVSWGTLPISVELPDGTTVSDNFEGYVYSFDDDLSQSNCTIPDPSIH
- glycan array binding signal (z-score) [1]: -0.153
- glycan array binding signal (z-score) [2]: 0.267
- glycan array binding signal (z-score) [3]: -0.066
- glycan array binding signal (z-score) [4]: -0.194
- glycan array binding signal (z-score) [5]: -0.203
- glycan array binding signal (z-score) [6]: -0.01
- glycan array binding signal (z-score) [7]: -0.125
- glycan array binding signal (z-score) [8]: -0.092
- glycan array binding signal (z-score) [9]: -0.215
- glycan array binding signal (z-score) [10]: -0.121
- glycan array binding signal (z-score) [11]: -0.189
- glycan array binding signal (z-score) [12]: -0.141
- glycan array binding signal (z-score) (Gal(b1-4)Glc): -0.096
- glycan array binding signal (z-score) (Gal(b1-4)Glc6S): -0.154
- glycan array binding signal (z-score) (Gal(b1-4)GlcNAc): -0.167
- glycan array binding signal (z-score) [13]: 0.26
- glycan array binding signal (z-score) [14]: -0.194
- glycan array binding signal (z-score) [15]: 0.367
- glycan array binding signal (z-score) [16]: -0.238
- glycan array binding signal (z-score) [17]: -0.202
- glycan array binding signal (z-score) [18]: -0.044
- glycan array binding signal (z-score) [19]: -0.169
- glycan array binding signal (z-score) [20]: -0.059
- glycan array binding signal (z-score) [21]: 0.114
- glycan array binding signal (z-score) [22]: -0.17
- glycan array binding signal (z-score) [23]: -0.181
- glycan array binding signal (z-score) [24]: -0.063
- glycan array binding signal (z-score) [25]: -0.174
- glycan array binding signal (z-score) [26]: -0.188
- glycan array binding signal (z-score) [27]: -0.241
- glycan array binding signal (z-score) [28]: -0.126
- glycan array binding signal (z-score) [29]: -0.233
- glycan array binding signal (z-score) [30]: -0.143
- glycan array binding signal (z-score) [31]: -0.219
- glycan array binding signal (z-score) [32]: -0.148
- glycan array binding signal (z-score) (Gal3S(b1-3)GalNAc): -0.17
- glycan array binding signal (z-score) (Gal3S(b1-3)GlcNAc): 0.037
